# Test results: publication PMC4336329 (PLoS ONE, 2015)
# Screen size: about 310,000 compounds; about 14,000 (4.5%) showed an effect of 50% or more. Effects have a minus sign here. This is one part of the list.
# Biological target: human ether-à-go-go-related gene (hERG) potassium channel (human, UniProt Q12809)
# Assay: primary screen, population patch clamp on CHO cells stably expressing hERG
# 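Further: peak tail current of the secondary pulse compared with the same well before compound.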
# Sequence of human ether-à-go-go-related gene (hERG) potassium channel (Q12809 whole entry, looked up): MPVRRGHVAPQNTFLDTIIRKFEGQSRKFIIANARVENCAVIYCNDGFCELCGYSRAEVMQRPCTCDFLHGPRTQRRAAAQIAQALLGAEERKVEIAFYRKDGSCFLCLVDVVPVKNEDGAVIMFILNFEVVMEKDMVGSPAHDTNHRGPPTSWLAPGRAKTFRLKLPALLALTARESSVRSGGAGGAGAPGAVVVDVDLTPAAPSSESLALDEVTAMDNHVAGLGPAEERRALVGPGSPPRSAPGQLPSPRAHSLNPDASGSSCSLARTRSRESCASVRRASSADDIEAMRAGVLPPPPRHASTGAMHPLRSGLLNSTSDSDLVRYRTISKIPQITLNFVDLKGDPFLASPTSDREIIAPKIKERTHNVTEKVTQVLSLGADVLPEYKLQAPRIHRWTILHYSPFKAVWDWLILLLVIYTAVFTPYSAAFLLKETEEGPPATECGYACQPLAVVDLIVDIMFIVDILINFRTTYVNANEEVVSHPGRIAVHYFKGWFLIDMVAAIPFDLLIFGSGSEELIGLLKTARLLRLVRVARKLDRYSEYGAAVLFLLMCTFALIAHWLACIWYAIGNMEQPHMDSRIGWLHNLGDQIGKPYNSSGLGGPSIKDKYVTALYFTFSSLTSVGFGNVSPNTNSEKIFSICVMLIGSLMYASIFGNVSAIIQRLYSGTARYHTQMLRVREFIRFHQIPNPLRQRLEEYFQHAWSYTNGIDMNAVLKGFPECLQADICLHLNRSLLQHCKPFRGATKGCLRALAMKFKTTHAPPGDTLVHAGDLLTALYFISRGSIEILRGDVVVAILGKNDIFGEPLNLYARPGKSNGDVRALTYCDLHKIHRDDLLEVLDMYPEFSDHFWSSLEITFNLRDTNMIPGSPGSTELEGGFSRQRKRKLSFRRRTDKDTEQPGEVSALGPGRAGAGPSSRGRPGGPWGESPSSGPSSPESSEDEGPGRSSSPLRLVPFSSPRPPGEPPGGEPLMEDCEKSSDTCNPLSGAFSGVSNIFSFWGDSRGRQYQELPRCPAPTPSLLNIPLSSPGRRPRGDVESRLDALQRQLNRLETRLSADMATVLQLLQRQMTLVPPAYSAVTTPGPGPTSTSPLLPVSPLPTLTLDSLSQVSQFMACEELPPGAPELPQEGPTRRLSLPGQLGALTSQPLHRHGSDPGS
row,Structure (SMILES),"hERG current change (%, negative = inhibition) at 10uM [%]"
1,O=C(O)C(=O)O.c1ccc(CNc2nc(CN3CCOCC3)nc3scc(-c4ccccc4)c23)cc1,-20.6
2,CC1=C(C(=O)OCC2CCCO2)C(c2ccncc2)C2=C(CCCC2=O)N1 (stereo not drawn),33.1
3,COc1ccc(C2/C=C\CN(CC3CC3)CC(=O)N2Cc2ccc(F)cc2)cc1 (stereo not drawn),-21
4,COc1ccc(CCNC(=O)CC2SC(=NCCC(C)C)NC2=O)cc1OC (stereo not drawn),-5.09
5,Cc1cccc(C)c1NC(=S)N/N=C/c1ccc(C(=O)O)cc1,6.79
6,OC(CNCc1ccccn1)c1ccccc1 (stereo not drawn),-3.94
7,COC(=O)C(CCSC)NC(=O)c1cn(-c2ccc(OC)cc2)c(=O)c2ccccc12 (stereo not drawn),6.24
8,O=S(=O)(Nc1cccnc1Cl)c1ccc(F)cc1,12.5
9,CCOC(=O)N/N=C(\C)c1ccc(C)c([N+](=O)[O-])c1,-4.33
10,COc1cccc(CN(C)C(=O)C(Cc2ccccc2)NC(=O)c2ccccc2)c1OC (stereo not drawn),-12.9
11,Cc1ccc(NC(=O)C2CCN(S(=O)(=O)c3ccc4c(c3)oc(=O)n4C)CC2)cc1,10.1
12,CCOC(CNc1ncnc2c1cnn2C)OCC,20.1
13,CN(C)c1cc(=O)n2c(n1)SCCC2,14.1
14,c1ccc(Sc2cnc3ccccc3n2)cc1,7.23
15,CCOc1ccc(S(=O)(=O)N2CCN(C(=O)Cc3ccc(S(=O)(=O)N4CCOCC4)s3)CC2)cc1,-6.03
16,COc1ccc(C2C(C(=O)c3sc(C)nc3C)=C(O)C(=O)N2CCCn2ccnc2)cc1 (stereo not drawn),18.2
17,Cc1cc(-n2c(C)c3c(C)nnc(C)c3c2C)ccc1N,7.6
18,CC(=O)Nc1ccc(SCC(=O)c2cc(C)n(Cc3cccs3)c2C)cc1,5.48
19,CCc1ccc(NC2CC(=O)N(c3ccc(OC)cc3OC)C2=O)cc1 (stereo not drawn),8.99

row,Structure (SMILES),"hERG current change (%, negative = inhibition) at 10uM [%]"
1,Cc1ccc(CN2CCC(C(=O)Nc3cccc(-c4cccc(F)c4)c3)CC2)o1,-69.1
2,CCOc1cc(/C=N/NC(=O)C(OC)c2ccccc2)ccc1O (stereo not drawn),3.89
3,NC(=S)N/N=C/C=C/c1ccccc1,1.93
4,CCc1cccc(NC(=O)c2ccc(NS(=O)(=O)c3c(C)noc3C)cc2)c1,-15.8
5,Cc1c(NS(=O)(=O)c2ccccc2F)c(=O)n(-c2ccccc2)n1C,12.2
6,COc1c2c(cc3ccc(=O)oc13)CCO2,12.7
7,O=C(CCN1C(=O)/C(=C/c2ccccc2)SC1=S)NC1CCS(=O)(=O)C1 (stereo not drawn),2.46
8,Cc1ccc(NC(=O)CCC(=O)OCC(F)(F)C(F)F)cc1,30.5
9,CC(C)[C@H](NC(=O)N1CCn2c1nc1ccccc12)C(=O)N[C@@H](Cc1ccccc1)C(=O)O,13.1
10,CC(NC(=O)c1ccc(Br)o1)c1ccccc1 (stereo not drawn),1.84
11,COc1ccccc1CNc1ccc2nnc(CCNC(=O)c3ccc(C)cc3)n2n1,-0.303
12,Cn1c(=O)cc(SCC(=O)NCCCN2CCOCC2)c2ccccc21,-2.51
13,O=C(CSCc1ccc(Br)cc1)Nc1ccc(S(=O)(=O)N2CCOCC2)cc1,-27.2
14,O=C(O)Cc1nc2nc3c(c(=O)n2[nH]1)CCCC3,16.3
15,OC(CN1CCOCC1)CN1CCOCC1,3.54
16,Cc1ccc(S(=O)(=O)CCc2nnc(N)s2)cc1,18.2
17,O=C(CCSc1nc(-c2ccc3c(c2)OCO3)cc(C(F)(F)F)n1)NCc1ccco1,0.89
18,Cc1cc(C)nc(NS(=O)(=O)c2ccc(N/C=C/C(=O)c3ccc(Cl)c(Cl)c3)cc2)n1,25.6
19,Cc1cccc(OCCCC(=O)NC(C)c2ccccc2)c1 (stereo not drawn),-4.67

row,Structure (SMILES),"hERG current change (%, negative = inhibition) at 10uM [%]"
1,CC1=C(n2ccnc2)CCC1=O,9.3
2,Cc1onc(-c2ccccc2)c1C(=O)N1CCC2(CC1)OCCO2,10.3
3,CON1C(=O)C(=O)N(OC)C2CCCCCC21 (stereo not drawn),3.34
4,O=C(c1ccc(Cl)c(S(=O)(=O)N2CCCCC2)c1)N1CCN(c2ccccc2)CC1,-26.5
5,Cc1cc(NC(=O)c2cc(-c3ccccn3)nc3c(Cl)cccc23)no1,1.48
6,Cc1ccc(N(C(=O)C(F)(F)F)C(C(=O)NC2CCCCC2)c2ccncc2)cc1C (stereo not drawn),15.6
7,CCCCNC(=O)C1CC(c2cccc(F)c2)=NO1 (stereo not drawn),-0.849
8,CCOC(=O)C1CCCc2c1[nH]c1ccc(Cl)cc21 (stereo not drawn),28.9
9,O=C(COc1ccc2ccc(=O)oc2c1)Nc1nccs1,-5.65
10,CCc1nc(SCc2nnc(-c3ccc(C)cc3)o2)c2c(C)c(C)sc2n1,15.7
11,CCOC(=O)C(C(=O)Nc1nccs1)C1CCCCC1 (stereo not drawn),-3.95
12,CC(C)c1nc2cc(C(=O)N(C)Cc3ccc(F)cc3)ccc2o1,1.04
13,OC(CNCc1ccco1)Cn1c2ccc(Br)cc2c2cc(Br)ccc21 (stereo not drawn),-0.0278
14,CC(C)[C@H](NS(=O)(=O)c1ccccc1)C(=O)OCC(=O)N1N=C(c2ccc(Cl)cc2)CC1c1ccco1 (stereo partly drawn),-1.34
15,Cc1cc(C(=O)OCC(=O)NCc2cccs2)c2ccccc2n1,-0.0436
16,COC(=O)C1=C(c2ccc(S(C)(=O)=O)cc2)C[C@@H]2CC[C@H]1N2C(=O)NCCO,8.14
17,COc1cccc(/C=N/n2c(-c3cc(C)[nH]n3)n[nH]c2=S)c1,15.7
18,CC(NC(=O)c1cc2c(=O)n(C)c3ccccc3c2n1C)c1ccc2c(c1)OCCO2 (stereo not drawn),14.7
19,N#CC1=C(SCc2ccccc2)NC2=C(C(=O)CCC2)C1c1ccc2c(c1)OCO2 (stereo not drawn),-15.3
